Experimental findings from the supplement of paper PMC11417369 are described below.

This is one part of the list.

The test system of this assay is PF3D7_0420300 AP2 domain 1 (GST-tagged). Put plainly: gcPBM binding intensity (ln(normalized median fluorescence intensity)); higher = stronger DNA binding. In short, it runs like this:
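Plasmodium falciparum DNA-binding domains carrying a GST tag were expressed in E. coli and applied for 1 h, at about 25 μg on average, to an Agilent 4 × 180k array. The array held primer-extended double-stranded 36-bp intergenic genomic probes together with negative controls, and binding took place in 1× PBS with 1% milk, 0.2 mg/ml BSA, 0.5% salmon testes DNA and 0.03% Triton X-100. An Alexa488 anti-GST antibody detected bound protein, and the array was scanned at 488 nm. Binding intensity is taken as the highest Masliner-normalised natural-log median intensity across replicate spots of either probe orientation.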
Turning to “AAAGATACTTTCCTCAAACACACAAAACTATACAAC [CACACA_site1475]”, the “gcPBM binding intensity (ln)” value is 9.63.

“ATATAAGAACAAAATTGTACATAAATATTTATATAA [XGTACX_site7404]”: the “gcPBM binding intensity (ln)” value came to 9.24.

Take “AAAAAAAAGGAAAATAAAAATAAAAAAAAATAATAA [XGTACX_negctrl_site601]”: the “gcPBM binding intensity (ln)” value is 9.19.

As to “TGAGAAAAAAAGAATTGTACATATAAAATATAACAA [XGTACX_site3500]”, the “gcPBM binding intensity (ln)” value was 9.22.

Consider “AAAAAAATATATATATATATATATATATTATATATG [GTGCAC_negctrl_site654]”, for which the “gcPBM binding intensity (ln)” value turned out to be 8.93.

For “TAATTATAGGTATACACACACATACATTTACATAAC [CACACA_site7509]”, the “gcPBM binding intensity (ln)” value stood at 10.1.

On to “TTTTATTATTTTTGTTGTACAGTATACTGTATGATT [XGTACX_site5359]”, for which the “gcPBM binding intensity (ln)” value was 9.39.

Take “AACAAACACAGACACACACACACACTAATATGATTA [CACACA_site8770]”: the “gcPBM binding intensity (ln)” value was found to be 10.2.

“ATATACTATTATGTGTGTACATAATAATTTATTATA [XGTACX_site3776]”: the “gcPBM binding intensity (ln)” value stood at 9.33.

Turning to “TCATACATTTTCCTTGCACACATTTATAATTAATGG [CACACA_site4511]”, the “gcPBM binding intensity (ln)” value is 9.59.

For the sequence TAAAACAAAAAAAAGATGCACTATTTATTTTATTAT, the “gcPBM binding intensity (ln)” value came out at 9.06.

Turning to “GACCATGTTAACAAAGCATGCATCTCTATATGTTTA [TGCATGCA_site358]”, the “gcPBM binding intensity (ln)” value is 9.31.

Turning to “ACATAAAATAAATATACACACATATGTATATATCAT [CACACA_site7424]”, the “gcPBM binding intensity (ln)” value was found to be 9.54.

As for “TTATTTTATAAATCGAAAACAAACAAAAAAAAGATA [XGTACX_negctrl_site178]”, the “gcPBM binding intensity (ln)” value is 9.36.

Consider “TTGCTGTATTTATTTTGTACACATTTGGCATTATAT [XGTACX_site3408]”, for which the “gcPBM binding intensity (ln)” value is 9.61.

On to “AAAAAAAAAAGAAAGAGTACTTTTTCAATACATATA [XGTACX_site2468]”, for which the “gcPBM binding intensity (ln)” value came to 8.89.

On to “AAGAAAAACAATACGTGTACCAAGCATCCTACTAAC [XGTACX_site6628]”, for which the “gcPBM binding intensity (ln)” value is 9.81.

With “TTTGTAGCACTTAAGAGTACAAAATGTATAAGATTT [XGTACX_site2321]”, the “gcPBM binding intensity (ln)” value turned out to be 9.05.

Regarding “TTAATATAATTAAAATGTACTTATTTGTAAACATTA [XGTACX_site6313]”, the “gcPBM binding intensity (ln)” value was determined as 8.86.

Consider “GAGGATCATCAATTCACACACATAAAAATGAAGTTA [CACACA_site3078]”, for which the “gcPBM binding intensity (ln)” value was found to be 9.38.

In the case of “CAACGATACAAAAAAGGTACACATATATATATATAT [XGTACX_site8688]”, the “gcPBM binding intensity (ln)” value amounted to 9.18.

As for “TATATAAAATTCTATTGTACATGTTATACGAAAGAA [XGTACX_site5711]”, the “gcPBM binding intensity (ln)” value turned out to be 9.19.

Consider “TTCTTTTTAATGTCGGTGCAACTCCATAAAAACAAA [GTGCAC_site9488]”, for which the “gcPBM binding intensity (ln)” value was determined as 8.96.

In the case of “CAATTTTCTAATGAAACATGCAAAATAAAATTTTAT [TGCATGCA_site13]”, the “gcPBM binding intensity (ln)” value was found to be 8.99.

For “CAAATACATAGACACACACACATATACATATTTATA [CACACA_site7610]”, the “gcPBM binding intensity (ln)” value is 10.

For “GAATAAAGGAGAGGCACACATATATATATATATATA [CACACA_site2452]”, the “gcPBM binding intensity (ln)” value stood at 9.26.

Regarding “TATTTGATAAATTATACACACACAATATATATAAAA [CACACA_site8625]”, the “gcPBM binding intensity (ln)” value was found to be 9.86.

On to “TTTATATTTAAATGCATGCACTTTCTATTTTTTTTT [GTGCAC_site9959]”, for which the “gcPBM binding intensity (ln)” value stood at 9.35.

For the sequence “ATTTTTTATATTTAGTGTACATGTTTTAATTTATAA [XGTACX_site7512]”, the “gcPBM binding intensity (ln)” value turned out to be 9.37.

ATAACTTTATTCAGTTTGCACTTTTATAACAAAAGA: the “gcPBM binding intensity (ln)” value turned out to be 9.14.

As to “CTTATATAATTCGATAGTACATATTTTTATATATAT [XGTACX_site4045]”, the “gcPBM binding intensity (ln)” value is 9.21.

As to “ATATTTTTTAGTAAGACGAAATAAATAAATCTTTAT [CACACA_negctrl_site1778]”, the “gcPBM binding intensity (ln)” value was 8.86.

Take TTTTCTTTTTTTTTTGTGCACATAATATATAATTAT: the “gcPBM binding intensity (ln)” value was 9.37.

Consider “TATATATATATAAGCACACAAACAAAAAAAATTATA [CACACA_site3897]”, for which the “gcPBM binding intensity (ln)” value came out at 9.57.

Take “ATTGAATATGTAAATGCACACCAAAAAAAAAAAAAA [CACACA_site9189]”: the “gcPBM binding intensity (ln)” value worked out at 9.21.

In the case of “TTTTTCCTATTTTTAGTGCACATATAAATAAATAAA [GTGCAC_site9821]”, the “gcPBM binding intensity (ln)” value worked out at 8.92.

For the sequence “AATAGAATGTAATATACACACATATATTTCTCTTTT [CACACA_site2630]”, the “gcPBM binding intensity (ln)” value amounted to 9.45.

On to “TATATATATATATATTGTACACATTGTGTTTAAATA [XGTACX_site5104]”, for which the “gcPBM binding intensity (ln)” value worked out at 9.17.

Take “TTGTAACCTATGCACGCACACAAGAAAAAAACAAAA [CACACA_site3775]”: the “gcPBM binding intensity (ln)” value amounted to 9.35.

On to “TTTTTATTGTTAATTTTAATTTTTTTTTTTTAATGC [CACACA_negctrl_site162]”, for which the “gcPBM binding intensity (ln)” value was found to be 8.82.

In the case of “TTTCCTTATAAAAATACACACAAACTTTAATTAAAA [CACACA_site7710]”, the “gcPBM binding intensity (ln)” value was found to be 9.1.

Take “TTTCTTTTTAAATGCTGTACAAAGGGTGACGTTAAA [XGTACX_site4724]”: the “gcPBM binding intensity (ln)” value worked out at 8.86.

Consider “TATTACACATATTATACACACATATATTATAGATAT [CACACA_site6839]”, for which the “gcPBM binding intensity (ln)” value turned out to be 9.58.

For the sequence “TATTCCAAATTTACTAGTACATAATCCATCCGATAA [XGTACX_site1558]”, the “gcPBM binding intensity (ln)” value is 9.04.

Take “AAAATTCATATATACACACACGCACATATATATATA [CACACA_site90]”: the “gcPBM binding intensity (ln)” value came to 9.85.
